The campaign covered roughly 360,000 compounds. About 17,000 (4.7%) were called active. The inconclusive results got no clear call from the source; some entries with a clear call stand among them for comparison. No stated cut-off is given here; in the data, active means activity change below about -50%; inconclusive means mostly about -30% to -49%; inactive means weaker than that.
Assay: qHTS for Inhibitors of Inflammasome Signaling: IL-1-beta AlphaLISA Primary Screen
Details: THP-1 LPS/ATP IL-1B secretion, 16 h; at 57.5 µM, hits give low values
How it was run: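 Secreted IL-1B measured by AlphaLISA bead assay after 16 h compound exposure of THP-1 cells; compounds (final up to 57.5 uM) added 1 h before LPS (250 ng/mL) and ATP (1.25 mM) stimulation; lower signal means less secretion.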
On the % scale 0 is the no-effect control and ±100 the full control effect.

| Compound | activity change |
| --- | --- |
| Cc1cnc(NC(=O)CN2CCN(c3ccccn3)CC2)s1 | inconclusive: -31.3% |
| CC(NC(=O)c1ccc(Br)cc1)c1ccc2c(c1)CCCC2 (configuration not stated) | inconclusive: -40.3% |
| COc1ccc(CCNc2nc(Cl)nc(NC(C)(C)CO)n2)cc1OC | inconclusive: -30.6% |
| COc1cccc(CN2CCC2(C)C(=O)Nc2ccc(C)c(O)c2)c1F (configuration not stated) | active: -52.4% |
| Cc1ccc(/C=C2\SC(N3CCN(C(c4ccccc4)c4ccccc4)CC3)=NC2=O)o1 | inconclusive: -42.3% |
| N#CCCn1cc(/C=C2\NC(=S)N(c3ccccc3)C2=O)c(-c2ccc(-c3ccccc3)cc2)n1 | inactive: -7.58% |
| Cc1ccc(CNC(=O)c2nnc(CS(=O)(=O)c3ccccc3)o2)cc1 | inconclusive: -32% |
| O=C(CCCOc1ccc(Cl)cc1Cl)Nc1ccncc1 | inconclusive: -35.2% |
| COc1ccc2c(c1)CCCC21NC(=O)N(CC(=O)N2CC(C)OC(C)C2)C1=O (configuration not stated) | inactive: 34.6% |
| COC(=O)[C@@H](Cc1ccccc1)NC(=O)[C@H]1CCC(=O)N1C(=O)OCc1ccccc1 | inconclusive: -37.5% |
| CSc1ccccc1-c1ccc2nccn2c1 | inconclusive: -45.1% |
| NC(=O)NC(=O)CSc1nc2sc(-c3ccccc3)cc2c(=O)n1-c1ccccc1 | inconclusive: -30.3% |
| CN(C)CCNc1ccc(Cl)cc1[N+](=O)[O-] | inactive: 2.85% |
| CCN(CC(=O)Nc1c(F)cccc1F)C(=O)C1CC(=O)N(CCc2ccccc2)C1 (configuration not stated) | inactive: 27.9% |
| NC1=NC[C@H](Cc2ccccc2)N1CCCCC1CCCCC1 | inconclusive: -41.1% |
| COc1ccccc1/C=C/C(=O)Nc1cccc(S(=O)(=O)NC2=NCCCCC2)c1 | active: -57.1% |
| CCc1nc2ccccc2n1CC(O)COCC1CC=CCC1 (configuration not stated) | inactive: 0% |
| CN(CCOc1ccccc1)CC(=O)Nc1ccc([N+](=O)[O-])cc1Cl | inconclusive: -47.7% |
| COc1cc(C(Nc2ccccn2)c2ccc3ccc(C)nc3c2O)cc(OC)c1O (configuration not stated) | active: -116% |
| CCCCCCCCN1C(=O)[C@H](CC(=O)NCc2cccc(C(F)(F)F)c2)C[C@@]2(C(=O)OC)CCCCC=C12 | active: -54.9% |
| CC(=O)[C@@]1(O)CC[C@H]2[C@@H]3C[C@H](C)C4=CC(=O)CC[C@]4(C)[C@H]3CC[C@@]21C | inconclusive: -43.9% |

| Compound | activity change |
| --- | --- |
| CC1(C(=O)NCCC#N)CCN1C(=O)Cc1ccc(-c2ccccc2)cc1 (configuration not stated) | inactive: 20.7% |
| CC(C)N(C(=O)Cn1cc(S(=O)(=O)CC(=O)NCCc2ccccc2)c2ccccc21)C(C)C | inconclusive: -45.4% |
| CCC(=O)NCc1nc2ccccc2n1Cc1ccccc1F | inactive: -3.96% |
| COc1cccc(C(=O)N2CCN(C(=O)c3cccc4ccccc34)CC2)c1OC | inactive: 2.16% |
| CN1CCN(NC(=O)c2cc(-c3cccc(Cl)c3)nc3ccccc23)CC1 | inconclusive: -41.6% |
| N#Cc1ccc(OCC(=O)OCC(=O)Nc2sccc2C(N)=O)cc1 | inactive: 10.2% |
| Cc1cc2nsnc2c(S(=O)(=O)NCC(=O)O)c1C | inactive: 9.51% |
| COc1ccc(-c2n[nH]c(C)c2-c2cnn(-c3ccccc3)c2)c(O)c1 | inactive: -4.51% |
| COc1ccc(NC(=O)c2cc(-c3ccc(F)cc3C)n[nH]2)cc1OC | inconclusive: -33.3% |
| CC1=C(C(=O)OCc2ccccc2)C(c2ccc([N+](=O)[O-])cc2)NC(=O)N1 (configuration not stated) | inconclusive: -34.6% |
| COc1ccc(CN2CCN(Cc3ccc4ccccc4c3)CC2)cc1OC | inconclusive: -40.1% |
| O=C(NC1CCCCC1)C(c1ccc2ncccc2c1)N(Cc1ccccc1)C(=O)c1ccc2c(c1)OCCO2 (configuration not stated) | active: -55.4% |
| COc1ccc(CNC2CCCc3ccccc32)c(OC)c1 (configuration not stated) | active: -50.1% |
| CC(=O)CSc1ccc(-c2nc3cc(C)c(C)cc3[nH]2)cn1 | active: -82.3% |
| COc1cc(CNCc2ccncc2)cc(Br)c1OCc1ccccc1F | inconclusive: -45.1% |
| Cc1nc(C(F)(F)F)ccc1C(=O)Nc1ccccc1N1CCOCC1 | inactive: -7.23% |
| COC(=O)CSc1nc(COc2ccccc2)nc2ccccc12 | inactive: 5.92% |
| O=C(NCCCn1ccnc1)c1cc2nc(-c3ccc(Br)cc3)cc(C(F)(F)F)n2n1 | inconclusive: -41.3% |
| CS(=O)(=O)c1ccc(C(=O)OCC(=O)NC(=O)C2CCCCC2)cc1[N+](=O)[O-] | active: -60.3% |
| NC(N)=NC(=O)c1nc(Cl)c(N2CCCCCC2)nc1N | inconclusive: -40.5% |
| CCOC(=O)C1CCN(C(=O)CSc2nc3ncccc3[nH]2)CC1 | inactive: 4.53% |

— PubChem BioAssay AID743279 (National Center for Advancing Translational Sciences (NCATS), 2014)
